In the supplement of paper PMC11417369:
This is one part of the list.

tested on: PfAP2-HC AP2 domain (GST-tagged); assay: gcPBM binding intensity (ln(normalized median fluorescence intensity)); higher = stronger DNA binding
Outline: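 After 1 h on an Agilent 4 × 180k array of primer-extended double-stranded 36-bp intergenic genomic probes and negative controls, bound GST-tagged P. falciparum DNA-binding domains were detected with Alexa488 anti-GST antibody and scanned at 488 nm. The domains had been expressed in E. coli, and binding took place in 1× PBS with 1% milk, 0.2 mg/ml BSA, 0.5% salmon testes DNA and 0.03% Triton X-100. Binding intensity is the highest Masliner-normalised natural-log median intensity across replicate spots of either probe orientation.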

Point of comparison: “CATTAACAAATAAATGCACACATATATATAAATAAT [CACACA_site7892]”, “gcPBM binding intensity (ln)” value 9.86. Against it:
- TAATATCATTTATGGGGTACCTCCTATTCTTATTTA [XGTACX_site1839] — lower, 9.64
- CGAACTGCACTTTTTAGTACTTAATAATTATTTTTT [XGTACX_site2446] — the same, 9.86
- TATACATCATTTTTCAACAACAAAAAAAAAAAAAAT [CACACA_negctrl_site1185] — lower, 9.44
- ATATATATAAATACAACACACATGTAATATATAAAT [CACACA_site5766] — higher, 10.2
- ACGTAAAATAGGGACGCATGCACAAATATTTTTAAA [TGCATGCA_site336] — lower, 9.72
- TAATAATTACAAAGAAGTACATAAAAAAAAATTTAT [XGTACX_site4684] — lower, 9.55
- CTATATATATATTTCAGTACATATTAAGAATATATA [XGTACX_site4860] — lower, 9.41
- TTCTAATAAATGTGTTGTACACCTTTAGCAACTATT [XGTACX_site3235] — lower, 9.73
- TATATAAATATATACACACATACATACATACATATA [CACACA_site3835] — higher, 10
- TATATATATTTATGCACACAAAATATATTATATAAT [CACACA_site5955] — lower, 9.67
- AGGAAAAAAGAAAAAACACACATAAATATTTATATA [CACACA_site7446] — lower, 9.65
- TTATTTATTTATTGTTGTACACAAAATGATTCTTAA [XGTACX_site6480] — lower, 9.48
- AAACAAAACAAAACATGTACACATTATATATATATA [XGTACX_site3374] — the same, 9.86
- TAAATACTTCGTAAAACACACAAGTAGAAAAAAAAA [CACACA_site360] — lower, 9.84
- ATTAATTATATATATACACACACATACACCCAAATA [CACACA_site9126] — higher, 10.3
- AAAAATATAATATATGCACACATACATACATATATA [CACACA_site7915] — lower, 9.78
- AATTTATTAGATAGATGTACATTTTAATAAAAGTAG [XGTACX_site6819] — lower, 9.66
- TAAAAATTAAAACTGGGTACAAATTTATAGATAGCC [XGTACX_site8075] — higher, 9.91
- TCCCCTTAATTTAAAACACACAAACAAATAAGTTAG [CACACA_site5973] — lower, 9.66
- TTTACATTTATGTGCACACATTCCATTTGAAAGTAA [CACACA_site1953] — lower, 9.7
- AATATTTTTTTTTAAACATGCATATTTGCATTACCC [TGCATGCA_site437] — lower, 9.55
- TGTATATATTTTAATAGTACTCATATATATATATAT [XGTACX_site7216] — lower, 9.73
- ATAACTTTCTATACATGTACACATATATGGTATTTT [XGTACX_site7535] — higher, 9.94
- ATAAATTTTTTATGAACACACAAATACACCCACTCA [CACACA_site5465] — higher, 10.7
- CTTATAAAAAAAATTGCACACATATTATACAGGACG [CACACA_site8133] — higher, 9.92
- ATTGTGTTGACGGGTGACCCTTCCAGAGAAATAGAA [CACACA_negctrl_site1362] — lower, 9.49
- TTTTTTTTAATGAGAAGTACGGTCTTTCAATGTCTT [XGTACX_site6773] — lower, 9.31
- ATATAAATAAATATATGTACACACACAAATATATAC [XGTACX_site3950] — higher, 10.2
- TCTTTCTTATTTTAATGATATTTATTCATTCCAGTT [CACACA_negctrl_site1679] — lower, 9.81
- ACTTTTACACTTTGATTGCACTACTAAACCAGTTCA — lower, 9.79
- AGAATTATTCTAAAAACACACAATACAAAAGTGCAT [CACACA_site3004] — lower, 9.73
- ATAAAAAAAAATATTTGTACACATATTTATATATTA [XGTACX_site8147] — lower, 9.6
- AAAAAACACGCGCACACACACACACGCGCCCACATA [CACACA_site7106] — higher, 11.1
- AATACTAAAACCCATACACACACATATATATAGTAC [CACACA_site9041] — higher, 11
- TCTTTCAATATTAATGCATGTTAATAATAAATTTTA [TGCATGCA_site448] — lower, 9.4
- ATATGTTTTTTTTTTTTTTTTTAATTTGTCATAAAT [CACACA_negctrl_site1208] — lower, 9.55
- TGAACAATATATAATAGTACATATTTATTTTTTTCT [XGTACX_site4256] — lower, 9.5
- TAAAGATGAAATATCACACATATATAAATATATAAA [CACACA_site4580] — lower, 9.68
- AATTAAATTACTTATACACACATAAAATGGGTGTAT [CACACA_site4703] — lower, 9.74
- AAAAAAAAAAAAAAGCGTACAAATAAAATATATTTA [XGTACX_site7195] — lower, 9.48
- CGTATATATAAATACACACACATATATATCTGTAAA [CACACA_site4272] — higher, 9.98
- TTAATTTATTTATGCACACATATATAATTACCCATA [CACACA_site682] — lower, 9.78
- TTTTTATATGCGTATTGTACATTATACATATATATA [XGTACX_site6786] — lower, 9.66
- TAAATGTCCTTATTTGCACACACACCCATAAGAAAT [CACACA_site3185] — higher, 10.8
- CCTTTTTTGTTTTATGCACACCATATAACCAAGGCT [CACACA_site7893] — higher, 9.88
- TATATATAAAAATATACACACACAAATGTATATATA [CACACA_site7956] — higher, 10.2
- ATGTAATGAAACATTGCACACATATAATAATATAAT [CACACA_site8402] — higher, 10.2
- ATGATGTGCAAGAGTAGTACACAATTTTGGGTTTAT [XGTACX_site501] — lower, 9.73
- AAACATAAGAAACACACACACATATATATATATATA [CACACA_site3642] — higher, 10.4
- AAAAAAAAATCAAAATGTACTTATTTTTATAATAAT [XGTACX_site4712] — lower, 9.5
- AACATCAATTTATTTTCTTACATTATACGATTCATG [CACACA_negctrl_site1300] — lower, 9.55
- AGAATATCAAAATAAAGTACATTTATTATATATATG [XGTACX_site7100] — lower, 9.56
- TTTTCTCTCAAAAAATGTACATAATATATATATTTT [XGTACX_site4861] — lower, 9.69
- AAAAAAAAAAAACATACACACATACATACCTATATA [CACACA_site6575] — higher, 10.3
- ATTCTTATAACAAGAAGTACAAATATATGTATATAT [XGTACX_site4528] — lower, 9.5
- TTTTTTTTTTTTTAAACATGCATAATAAATATAATA [TGCATGCA_site265] — lower, 9.28
